The whole screen tested about 340,000 compounds, of which about 12,000 (3.5%) were called active. Inconclusive results, whose numbers are uncertain, are shown with a selection of clear calls. The call rests on the fitted dose curve; in most records, active means well fitted inhibition curve with a large enough effect; inconclusive means small, poorly fitted or top-dose-only effect, or another doubt; inactive means no such curve, though single readings can be large or run the other way. No potency is given beside an inconclusive call; the fits are too rough.
Experiment: qHTS Assay for Inhibitors of Hepatitis C Virus (HCV)
Conditions: Huh7.5.1 HCVcc-Cre (HCVcc is cell-culture hepatitis C virus) infection, luciferase reporter, 44 h; series mostly up to 41.8 µM
Method in brief: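 Whole-lifecycle infectious HCVcc-Cre system; cells 1,000/well, compound then virus (~0.5 moi) added 4 h after plating, 44 h culture. Luciferase read 15 sec following 15 min substrate incubation, room temp.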
For `Cc1cccc(CN2CCC(CNC(=O)CSc3cc(=O)n(C)c4cc(Cl)ccc34)CC2)c1`, the Potency was inconclusive [inhibitor, partial curve]. In the case of `COc1ccc2oc(C(=O)OCC(=O)N(C)C3CCCCC3)c(C)c2c1`, the Potency is reported as inconclusive [inhibitor, full curve]. For `Cc1sc2nc(-c3ccncc3)[nH]c(=O)c2c1-c1ccccc1`, the Potency was “inactive”. In the case of `COc1ccc(F)cc1S(=O)(=O)Nc1ccncc1`, the Potency is reported as “inactive”. For `COc1ccc(C(=O)Nc2ccccc2C(=O)Nc2ccncc2)cc1`, the Potency was inconclusive [inhibitor, single point]. For `CC1CC(C)CN(C(=O)c2cccc(S(=O)(=O)N(C)c3ccccc3)c2)C1` (centres undefined), the Potency was active: 31.6 µM. For `COc1ccc(Cl)c(NC(=O)Cn2nnc(-c3ccccc3N)n2)c1`, the Potency was inconclusive [inhibitor, single point]. With `CC(C)CN(C(=O)COC(=O)c1ccccc1NCc1ccco1)c1c(N)n(Cc2ccccc2)c(=O)[nH]c1=O` the Potency was inconclusive [inhibitor, single point]. For `Cc1nn(Cc2ccccc2)c(C)c1C(=O)OCC(=O)Nc1cccc(S(N)(=O)=O)c1`, the Potency was inconclusive [inhibitor, single point]. In the case of `Cc1ccc2nc(NC(=O)COC(=O)c3ccncc3)sc2c1`, the Potency is reported as “inactive”. For `CCOc1ccc(N(CC(=O)NC2CCCC2)S(=O)(=O)c2ccccc2)cc1`, the Potency was “inactive”. For `O=C(Nc1c(Br)cc2c(c1Br)Cc1cc([N+](=O)[O-])ccc1-2)C(Cl)Cl`, the Potency was inconclusive [inhibitor, full curve]. For `CSc1ccccc1C(=O)NCc1ccc(C)cc1`, the Potency was “inactive”. For `CCOC(=O)C(NC(C)=O)C(OC(C)=O)c1cccc([N+](=O)[O-])c1` (centres undefined), the Potency was “inactive”. With `Nc1nc2ncc(-c3ccsc3)c(N)n2n1` the Potency was “inactive”. For `CN(C)S(=O)(=O)c1ccc(Oc2ccc(S(=O)(=O)N(C)C)cc2)cc1`, the Potency was active: 11.2 µM. With `Cc1cccc(NC(=O)COC(=O)c2n[nH]c3ccccc23)c1C` the Potency was inconclusive [inhibitor, partial curve]. In the case of `Fc1cc(Br)ccc1NC(=S)Nc1ccccc1`, the Potency is reported as “inactive”. With `CCC[C@@H](CN1CCC[C@H]1CN1C(N)=NC[C@H]1CC(C)C)N1C[C@@H]([C@H](C)CC)N(CCCC2CCCC2)C1=N` the Potency was active: 2.82 µM. With `COc1ccccc1CCNC(=O)c1ccc(NC(=O)CC2SC(N3CCCCC3)=NC2=O)cc1` (centres undefined) the Potency was inconclusive [inhibitor, partial curve]. With `C=CC(=O)NC(NC(=O)C=C)c1ccc(Br)cc1` the Potency was inconclusive [inhibitor, single point]. In the case of `COc1ccc(OCCCC(=O)Nc2ccc3c(c2)OCCO3)cc1`, the Potency is reported as inconclusive [inhibitor, partial curve, poor fit]. For `c1ccc(Cn2nnnc2C(c2cccnc2)N2CCN(C3CCCCC3)CC2)cc1` (centres undefined), the Potency was “inactive”. In the case of `COC(=O)c1c(NC(=O)c2ccc(C)c(S(=O)(=O)Nc3ccccc3C)c2)sc2c1CCCC2`, the Potency is reported as inconclusive [inhibitor, partial curve]. With `COCC(=O)N(C)[C@H]1C[C@H]2c3cc(N4CCN(C)CC4)ccc3CCN2C(=O)[C@H]1[C@H](C)O` the Potency was inconclusive [inhibitor, single point]. In the case of `NC(=O)c1cc(S(=O)(=O)N2CCN(c3cccc(Cl)c3)CC2)cs1`, the Potency is reported as “inactive”. For `CNS(=O)(=O)c1ccc2nc(NC(=O)/C=C/c3ccco3)sc2c1`, the Potency was inconclusive [inhibitor, single point]. In the case of `COc1ccc(CNS(=O)(=O)c2cc(-c3cc(C)no3)ccc2C)cc1OC`, the Potency is reported as inconclusive [inhibitor, single point]. In the case of `COc1ccc(-n2cc(-c3ccc(OC)c(OC)c3)[nH]c2=S)cc1`, the Potency is reported as inconclusive [inhibitor, single point]. With `COc1ccc(C)cc1Nc1nc(C)nc2sc(C)cc12` the Potency was inconclusive [inhibitor, partial curve]. For `COc1ccc(-n2nc([N+](=O)[O-])c(=NCCCN3CCCC3=O)n2O)cc1`, the Potency was inconclusive [inhibitor, single point]. With `O=C(Cc1ccc(F)cc1)Nc1ccc(S(=O)(=O)N2CCCCC2)cc1` the Potency was inconclusive [inhibitor, single point]. For `CC(C)(C)c1ccc(-c2cc(C(=O)NNC(=O)Nc3ccccc3)c3ccccc3n2)cc1`, the Potency was inconclusive [inhibitor, single point]. With `O=C(NCc1cccc(Br)c1)C1CC(c2ccccc2C(F)(F)F)=NO1` (centres undefined) the Potency was “inactive”. For `CC(=O)c1ccc(NC(=O)C(C)OC(=O)c2ccc(NS(=O)(=O)c3ccc(F)c(F)c3)cc2)cc1` (centres undefined), the Potency was active: 12.6 µM. For `CC(=O)c1c(C)[nH]c(C(=O)OCC(=O)Nc2ccc(C)cc2[N+](=O)[O-])c1C`, the Potency was active: 2.82 µM. With `O=S(=O)(Nc1ccc(F)cc1Cl)c1ccc(-c2cnc(C3CC3)o2)cc1` the Potency was inconclusive [inhibitor, partial curve]. In the case of `Cc1ccc(/C=C/C(=O)Nc2sc3c(c2C#N)CCCC3)o1`, the Potency is reported as inconclusive [inhibitor, partial curve]. In the case of `CCOC(=O)c1ccccc1NC(=O)CSc1nnc(C)c(=O)[nH]1`, the Potency is reported as inconclusive [inhibitor, single point]. For `CN(C(=O)c1cccc(NC(=O)Cc2ccc(NC(=O)C3CCCN(C(=O)C4CCCCC4)C3)cc2)c1)C1CCC1` (centres undefined), the Potency was inconclusive [inhibitor, partial curve]. In the case of `Cc1ccc2[nH]c(=O)c3cc(C(=O)N(C)Cc4ccco4)sc3c2c1`, the Potency is reported as inconclusive [inhibitor, partial curve]. For `Cc1ccc(O)c(CNc2cccc3cccnc23)c1`, the Potency was inconclusive [inhibitor, partial curve, poor fit]. For `COCCn1c(SCc2cnc(-c3ccccc3)s2)nnc1-c1ccncc1`, the Potency was “inactive”. In the case of `Clc1ccc(C(c2ccccc2)N2CCNCC2)cc1` (centres undefined), the Potency is reported as active: 11.2 µM. In the case of `NCC1CCN(c2nc3ccccc3c3c2CCCC3)CC1`, the Potency is reported as inconclusive [inhibitor, single point]. In the case of `CS(=O)(=O)N1CCN(C(=O)c2cc(-c3ccncc3)nc3ccc(Cl)cc23)CC1`, the Potency is reported as inconclusive [inhibitor, single point]. With `Cc1c(NC(=O)c2ccc(N(C)S(=O)(=O)c3ccccc3)cc2)c(=O)n(-c2ccccc2)n1C` the Potency was inconclusive [inhibitor, single point]. For `COc1ccccc1C(=O)NCc1ccccc1`, the Potency was “inactive”. In the case of `CN1C(=O)NC(=O)[C@]2(Cc3ccccc3N3CCN(c4ccccc4)CC32)C1=O` (some centres undefined), the Potency is reported as “inactive”. With `CC(C)(C)OC(=O)NCc1ccc(CNC(=O)c2nc[nH]c2C(=O)NCc2ccccc2)cc1` the Potency was inconclusive [inhibitor, single point]. For `Clc1ccc2c(c1)CNc1c(ncnc1N1CCOCC1)O2`, the Potency was inconclusive [inhibitor, single point]. In the case of `CCn1c(O)c(/C=C2\C=Nc3ccccc32)sc1=Nc1ccc(C)cc1`, the Potency is reported as “inactive”. In the case of `O=C1CC(N(CCc2ccccc2)C(=S)Nc2ccccc2)C(=O)N1c1ccc(Br)cc1` (centres undefined), the Potency is reported as inconclusive [inhibitor, partial curve]. For `CCOC(=O)C(=N/O)/C(C)=N/NC(=O)C(=O)Nc1ccc(Cl)cc1`, the Potency was active: 11.2 µM. For `CCCCNc1c(-c2ccc(OC)c(SC3CCCCC3)c2)nc2ccc(C)cn12`, the Potency was inconclusive [inhibitor, partial curve]. In the case of `Cc1ccc(C(=O)NNC(=O)OC(C)(C)C)c(Cl)c1`, the Potency is reported as “inactive”. With `COc1cccc(C(=O)NC(=S)N2CCN(c3ccc(C(F)(F)F)cc3[N+](=O)[O-])CC2)c1` the Potency was inconclusive [inhibitor, single point]. For `CCN(CC)S(=O)(=O)c1ccc(Cl)c(NC(=O)COC(=O)c2nc3nc(C)cc(C)n3n2)c1`, the Potency was inconclusive [inhibitor, single point]. For `N#CCn1cnc2c(oc3ccccc32)c1=O`, the Potency was “inactive”. In the case of `C[C@H](NC(=O)c1ccccc1)C(=O)Nc1nc(-c2ccccn2)cs1`, the Potency is reported as inconclusive [inhibitor, single point]. For `COc1ccc(OC)c(NC(=O)CN2C(=O)C(C)N(c3ccc(C)cc3)C2=O)c1` (centres undefined), the Potency was inconclusive [inhibitor, single point]. For `COC(=O)[C@@]1(C)[C@H]2C(=O)N(C)C(=O)[C@H]2[C@H]2CN=C(SCc3ccc(Cl)cc3)N21`, the Potency was active: 4.47 µM. In the case of `COCCN(C(=O)CCC(=O)Nc1cc(C)on1)C(C(=O)NC1CCCC1)c1ccc(C)cc1` (centres undefined), the Potency is reported as “inactive”. For `CC1CCCCN1C(=O)CSc1nc(C2CC2)nc2ccccc12` (centres undefined), the Potency was “inactive”. In the case of `CC1=C(C(N)=O)C(c2ccncc2)n2nc(-c3ccccc3Cl)nc2N1` (centres undefined), the Potency is reported as inconclusive [inhibitor, single point]. For `CCCCOc1ccccc1NC(=O)CC1SC(=NCC)N(CC)C1=O` (centres undefined), the Potency was inconclusive [inhibitor, partial curve, poor fit]. In the case of `COc1ccc(-c2noc(CCC(=O)NCC3CCCO3)n2)cc1OC` (centres undefined), the Potency is reported as “inactive”. In the case of `O=C(COC(=O)c1ccccc1C(=O)c1ccc(Cl)cc1)NC(c1ccccc1)c1ccccc1`, the Potency is reported as “inactive”. With `CCOC(=O)N1CCC(NC(=O)CS(=O)(=O)Cc2nc(-c3cccc(Cl)c3)oc2C)CC1` the Potency was inconclusive [inhibitor, partial curve].

Source: PubChem BioAssay AID651820 (National Center for Advancing Translational Sciences (NCATS), 2012)
Potency means the concentration at half of the fitted maximal effect; tags describe the fitted curve by direction and shape.
